In all, about 33,000 sequences were measured (“E-score (-0.5 to 0.5)”: median about -0.035, highest 2% from about 0.34 on). The list shows a part of the results.
Target: T1, Mot3 (UniProt P54785)
T1 sequence: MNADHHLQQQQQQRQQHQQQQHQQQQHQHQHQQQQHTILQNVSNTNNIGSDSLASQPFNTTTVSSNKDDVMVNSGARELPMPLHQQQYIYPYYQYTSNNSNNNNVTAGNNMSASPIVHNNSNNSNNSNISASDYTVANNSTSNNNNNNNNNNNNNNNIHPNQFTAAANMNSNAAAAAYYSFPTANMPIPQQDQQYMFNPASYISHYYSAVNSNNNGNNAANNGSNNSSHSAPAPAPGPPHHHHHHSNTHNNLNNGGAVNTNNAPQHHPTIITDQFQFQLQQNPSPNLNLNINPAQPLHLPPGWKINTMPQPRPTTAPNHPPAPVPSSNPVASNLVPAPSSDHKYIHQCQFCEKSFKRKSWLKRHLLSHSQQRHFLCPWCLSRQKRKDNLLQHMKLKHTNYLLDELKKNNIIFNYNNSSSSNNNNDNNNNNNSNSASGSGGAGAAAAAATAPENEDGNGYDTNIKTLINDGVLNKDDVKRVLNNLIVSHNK
Experiment: PBM E-score (8-mer binding enrichment) (E-score (-0.5 to 0.5)); higher = stronger / more preferred TF binding; most listed sequences are background and not binding sites
Settings: protein concentration: 200 nM; construct: GST-full length
In short: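 Using PURExpress in vitro transcription/translation, GST-tagged yeast transcription factors were made in full-length or DNA-binding-domain form. These were applied at about 100-200 nM to double-stranded universal all-10-mer Agilent arrays, and bound protein was detected with fluorescent anti-GST. Scans were normalised with masliner before the Universal PBM Analysis Suite assigned E-scores to ungapped eight-base words pooled with their reverse complements.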

Sequence | PBM E-score
AAGCGTCC | -0.142
CAGCAGAG | -0.293
AGATATGC | 0.0227
CTATTTTC | -0.041
ATGACGGC | -0.362
CGAGGAAA | -0.044
CTGCACCC | -0.185
GCGCTGAC | -0.0458
CTAGGTAC | 0.26
ACCGAGCT | 0.0142
GGATGCCC | -0.258
CATATACA | 0.26
ATATTCCA | 0.0459
CATCCCAG | -0.0916
ATGGTCAA | 0.0423
CATAGTGA | 0.0256
CGCAGACA | -0.002
GGCATCAC | -0.0141
GGTATCAC | -0.248
AGCCTAGG | -0.235
ACCTTAAA | -0.092
AATTCGGT | -0.0054

Sequence | PBM E-score
AGGTTTTC | 0.113
ACAGATAC | 0.0685
GTACAGCA | 0.0112
ATACACAT | 0.3
CTGTATAC | 0.156
GTCAGTCA | 0.0634
GTCACCTA | -0.0234
ACGATTGC | 0.268
ACTTAATC | -0.0144
CCTATACA | 0.268
CACGGTGC | -0.0219
CCATCGCC | -0.161
ACGACCCG | -0.104
ACGGGGGA | -0.0161
ATAAAAAG | 0.132
GGGAATAA | -0.209
AAAGCGAC | -0.0586
CCGCTATC | -0.313
CTCTGCAC | -0.2
AAAGCACT | -0.216
AATACGCC | 0.0729
GGATTTGA | -0.11

Sequence | PBM E-score
CGTCCCCA | -0.252
CTGGTGAA | 0.112
CTACGTAC | 0.195
ACGGAACC | 0.0959
GAATAATA | 0.105
ACAAGGAT | 0.207
GACGGTTA | -0.0411
ATCGGTCA | -0.298
CATTATCG | -0.0496
AGCTGAAG | -0.0742
AGCACCGC | -0.299
AACCATAA | 0.0898
ACCGCACC | -0.21
TAGAAGCA | 0.0947
AGGTGTTG | 0.192
TCATTCAA | 0.055
GTGTCGGA | -0.0038
GGAGTGAA | -0.113
CAGCCTTA | -0.128
AAGTGGAA | 0.0185
CAATAATA | 0.103
CCCAAACC | -0.142

Sequence | PBM E-score
ACTGGGCC | -0.13
AACGGTGC | 0.154
CGAACCTC | -0.171
AGAGTCTA | -0.081
CGCACACG | -0.159
GGGACCTA | -0.263
GTCAAGAA | 0.174
ATTGTGAC | -0.046
ATTTAAAA | 0.039
GTACGCAA | 0.218
GCAGTTTA | -0.0464
CTGAGGGA | -0.322
AATCAAGG | 0.0589
CTAGCAGA | -0.217
CCCAAGTA | -0.0226
CCCGGCAC | -0.333
CAAGCGCG | -0.182
AGAAAGGG | 0.0398
GGCTAATA | -0.151
ATCGAGAA | 0.0657
